In all, about 310,000 compounds went through this assay and about 14,000 (4.5%) showed an effect of 50% or more. Effects have a minus sign here. Some of the results follow.
These molecules were tested against human ether-à-go-go-related gene (hERG) potassium channel (human, UniProt Q12809) (assay: primary screen, population patch clamp on CHO cells stably expressing hERG).
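Note: peak tail current of the secondary pulse compared with the same well before compound.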

Sequence of human ether-à-go-go-related gene (hERG) potassium channel (Q12809 whole entry, looked up): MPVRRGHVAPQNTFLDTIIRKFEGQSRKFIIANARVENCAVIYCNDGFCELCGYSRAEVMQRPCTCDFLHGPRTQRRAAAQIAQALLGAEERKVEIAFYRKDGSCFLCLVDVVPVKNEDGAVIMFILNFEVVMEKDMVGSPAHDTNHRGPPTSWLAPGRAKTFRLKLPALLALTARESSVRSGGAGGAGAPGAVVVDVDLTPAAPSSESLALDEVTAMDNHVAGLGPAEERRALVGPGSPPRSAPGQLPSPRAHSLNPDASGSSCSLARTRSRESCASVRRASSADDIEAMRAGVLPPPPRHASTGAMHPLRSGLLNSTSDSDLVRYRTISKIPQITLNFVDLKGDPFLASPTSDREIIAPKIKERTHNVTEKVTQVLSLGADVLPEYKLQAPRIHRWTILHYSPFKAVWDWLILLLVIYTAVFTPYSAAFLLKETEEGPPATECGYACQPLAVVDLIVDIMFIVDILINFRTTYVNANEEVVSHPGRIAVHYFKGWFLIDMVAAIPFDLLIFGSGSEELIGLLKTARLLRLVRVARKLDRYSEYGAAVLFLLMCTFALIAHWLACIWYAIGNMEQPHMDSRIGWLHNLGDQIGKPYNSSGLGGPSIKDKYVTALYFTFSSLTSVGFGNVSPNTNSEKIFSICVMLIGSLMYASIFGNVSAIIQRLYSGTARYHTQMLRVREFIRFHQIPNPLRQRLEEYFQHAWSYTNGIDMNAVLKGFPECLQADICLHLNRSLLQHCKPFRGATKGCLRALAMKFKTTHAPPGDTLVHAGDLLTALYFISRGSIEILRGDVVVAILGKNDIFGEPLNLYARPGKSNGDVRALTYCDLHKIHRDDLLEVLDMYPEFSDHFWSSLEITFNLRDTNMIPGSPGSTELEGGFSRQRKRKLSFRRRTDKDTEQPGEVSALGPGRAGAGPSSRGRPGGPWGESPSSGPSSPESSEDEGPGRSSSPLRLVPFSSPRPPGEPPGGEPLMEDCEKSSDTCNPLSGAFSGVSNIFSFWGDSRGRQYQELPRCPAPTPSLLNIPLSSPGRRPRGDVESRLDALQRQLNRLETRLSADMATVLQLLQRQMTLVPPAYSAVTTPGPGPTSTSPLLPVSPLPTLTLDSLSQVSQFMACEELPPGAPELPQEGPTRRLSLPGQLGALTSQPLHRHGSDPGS

Row | SMILES | hERG current change (%, negative = inhibition) at 10uM [%]
1 | Nc1nnn(CC(=O)N/N=C/c2ccncc2)n1 | 1.88
2 | CC(=O)NC(Cc1ccccc1)Cc1ccccc1 | 20.7
3 | Cc1ccc(C(=O)c2nc3c(n2O)CCCC3)cc1 | -0.728
4 | Cc1ccccc1NC(=O)COC(=O)c1cc[n+]([O-])cc1 | -12.2
5 | CC1CCN(CC(=O)N2CCc3ccccc32)CC1 | 8.25
6 | Cc1cccc(-n2c(O)c(C=Nc3ccccc3-c3n[nH]c(=S)[nH]c3=O)c3ccccc3c2=O)n1 | -25.2
7 | O=S(=O)(c1ccc(Cl)cc1)N1CCCCC1c1cccnc1 (stereo not drawn) | -22.9
8 | CCOC(=O)c1c(NC(=O)CSc2nnc(CNc3ccc(F)cc3)o2)sc(C(C)=O)c1C | 4.69
9 | Cc1ccc(NC(=O)/C=C/c2ccc(Cl)cc2)nc1 | 17.9
10 | CCn1c(=O)c2cc(C(=O)NC(C)C)sc2c2ccccc21 | 1.39
11 | COc1ccc(-c2csc(NCCc3nc4cc(Cl)c(Cl)cc4n3CCCO)n2)cc1 | 0.123
12 | COc1cccc(NC(=O)CS(=O)(=O)Cc2nc(-c3ccc(C)cc3)oc2C)c1 | 16.7
13 | COc1ccc(C(=O)NCCc2ccc(Cl)cc2)cc1S(=O)(=O)N1CCCCC1C (stereo not drawn) | -52.3
14 | Cc1cc(NC(=O)COc2nnc(-c3ccccc3)c3ccccc23)no1 | -14.7
15 | COc1ccc(C(=O)CSc2nnc(CNc3ccc(C)cc3C)n2Cc2ccco2)cc1 | 6.88
16 | CC(C)c1c(O)nc(SCCC(=O)O)[nH]c1=O | 2.49
17 | Cc1cc(/C(N)=N/OC(=O)c2ccccc2Cl)no1 | 13.7
18 | CC(=O)Nc1ccc(NC(=O)C(C)OC(=O)/C=C/c2cnc3ccccc3n2)cc1 (stereo not drawn) | 4.73
19 | O=C(c1ccco1)N1CCN(C2CC(=O)N(c3ccc4c(c3)OCO4)C2=O)CC1 (stereo not drawn) | -16.8
20 | O=C1C2C3c4ccccc4C(c4ccccc43)C2C(=O)N1c1cccc2cccnc12 (stereo not drawn) | 14.5
21 | COCCN(C(=O)C1=COCCO1)c1c(N)n(CC(C)C)c(=O)[nH]c1=O | 0.285
22 | CC1=C(C(=O)N2CCOCC2)C(c2ccsc2)C2=C(CCCC2=O)N1 (stereo not drawn) | 1.43
23 | COc1ccc(CCN(C)C(=O)CSc2nnc(C3CC3)n2N)cc1OC | -22.5
24 | O=S(=O)(Nc1nc2ccccc2nc1-[n+]1cccc(N=C([O-])c2ccccc2Cl)c1)c1ccccc1 | 1.73
